From the RNAGym collection of RNA variant scans (doi:10.1093/nar/gkz1192)
The source gives no read counts; variants with many changes may rest on few reads.

B1: CPEB3 Ribozyme (parent)
chain: UAACAGGGGGCCACAGCAGAAGCGUUCACGUCGCAGCCCCUGUCAGAUUCUGGUGAAUCUGCGAAUUCUGCUGUAUAUCUC

Variants of: B1
Assay: self-cleavage, relative activity (ratio to wild type); higher = more cleavage; in vitro, sequencing
How it was run: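 Relative activity was defined as the cleaved/total read fraction for a variant divided by the same fraction for the unmutated ribozyme. CPEB3 self-cleaving ribozyme libraries were made by rounds of error-prone PCR, barcoded, and transcribed in vitro with T7 RNA polymerase for 5 hours at 37°C, and cleavage ran through transcription plus a 15 min DNase I step before EDTA. Illumina sequencing of template-switched reverse transcripts gave the reads, and DNA sequencing mapped the barcodes. Averages come from three batches, using variants with at least 5 reads.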

Variant	self-cleavage
UAACAGGGGGCCACAGCAGAAGCGUUCACGCCGCAGCCCCGGUCAGACUCCGGUGAAUCUGCGAAUUCUGCUGUAUAUCUC [U31C U41G U48C U51C]	0.16
UAACAGGGGGCCACAGCAGAAGCGUUCACGCCGCAGCCCCGGUCAGAUUCUGGCGAAUCUGCGAAUUCUGCUGUAUAGCUC [U31C U41G U54C U78G]	0.18
UAACAGGGGGCCACAGCAGAAGCGUUCACGCCGCAGCCCCUGACAGAUUCGGGUGAGUCUGCGAAUCCUGCUGUAUAUCUC [U31C U43A U51G A57G U67C]	0.14
UAACAGGGGGCCACAGCAGAAGCGUUCACGCCGCAGCCCCUGACAGAUUCUGGCGAAUCUGCGAAUCCCGCUGUAUAUCUC [U31C U43A U54C U67C U69C]	0.1
UAACAGGGGGCCACAGCAGAAGCGUUCACGCCGCAGCCCCUGCCAGUUUCUGGUGAAUCUGCGAAUUCUGCUGUAUACCUC [U31C U43C A47U U78C]	0.24
UAACAGGGGGCCACAGCAGAAGCGUUCACGCCGCAGCCCCUGCCAGAUUCUGGUGAGUCUGCGGAUUCUGCUGUAUAUCUC [U31C U43C A57G A64G]	0.23
UAACAGGGGGCCACAGCAGAAGCGUUCACGCCGCAGCCCCUGCCAGAUUAUGGUGAAUCUGCGAACUCUGCUGUAUAUCUC [U31C U43C C50A U66C]	0.06
UAACAGGGGGCCACAGCAGAAGCGUUCACGCCGCAGCCCCUGCCAUAUUCUGGUGAAUCUGCGAAUCCUGCCGUAUAUCUC [U31C U43C G46U U67C U72C]	0.15
UAACAGGGGGCCACAGCAGAAGCGUUCACGCCGCAGCCCCUGCCAGAUACUGGCGAAUCUGCGAAUUCUGCUGUAUAUCUC [U31C U43C U49A U54C]	0.13
UAACAGGGGGCCACAGCAGAAGCGUUCACGCCGCAGCCCCUGCCAGAUACUGGCGAAUCCGCGAAUUCUGCAGUAUAUCAC [U31C U43C U49A U54C U60C U72A U80A]	0.04
UAACAGGGGGCCACAGCAGAAGCGUUCACGCCGCAGCCCCUGCCAGAUUCCGGUGAAUCUGCGAAUUCUGCUGUAUAUCUC [U31C U43C U51C]	0.45
UAACAGGGGGCCACAGCAGAAGCGUUCACGCCGCAGCCCCUGCCAGAUUCUGGCGAAUCCGCGAAUUCUGCUGUAUAUCUC [U31C U43C U54C U60C]	0.16
UAACAGGGGGCCACAGCAGAAGCGUUCACGCCGCAGCCCCUGCCAGAUUCUGGUGAAUCUGCGAACUCAGCUGUAUAUCUC [U31C U43C U66C U69A]	0.39
UAACAGGGGGCCACAGCAGAAGCGUUCACGCCGCAGCCCCUGGCAGACUCUGGCGAAUCCGCGAAUUCUGCUGCAUAUCUC [U31C U43G U48C U54C U60C U74C]	0.14
UAACAGGGGGCCACAGCAGAAGCGUUCACGCCGCAGCCCCUGGCAGAUACUGGUGAAUCUGCGAAUUCUGCUGUAUAUCUC [U31C U43G U49A]	0.18
UAACAGGGGGCCACAGCAGAAGCGUUCACGCCGCAGCCCCUGUCAGAAUCUGGUGAGUCUGCGAAUUCUGCUGUAUAUCUC [U31C U48A A57G]	0.21
UAACAGGGGGCCACAGCAGAAGCGUUCACGCCGCAGCCCCUGUCAGAAUCUGGUGAAUCUGCGAAUUCUGCUGUAUCUCUC [U31C U48A A77C]	0.15

Variant	self-cleavage
UAACAGGGGGCCACAGCAGAAGCGUUCACGCCGCAGCCCCUGUCAGACUCCGGUGAAUCUGCGAAUCCUGCAGUAUAUCUC [U31C U48C U51C U67C U72A]	0.09
UAACAGGGGGCCACAGCAGAAGCGUUCACGCCGCAGCCCCUGUCAGACUCUGGUGAAUCCGCGAAUUCUGCUGCAUGUCUC [U31C U48C U60C U74C A77G]	0.1
UAACAGGGGGCCACAGCAGAAGCGUUCACGCCGCAGCCCCUGUCAGAUACUGGUGAAUCUGCGAAUUCUGCUGUAUGUCUC [U31C U49A A77G]	0.49
UAACAGGGGGCCACAGCAGAAGCGUUCACGCCGCAGCCCCUGUCAGAUACUGGUGAAUCUGCGAAUUCUGCUGUAUAUUUC [U31C U49A C79U]	0.54
UAACAGGGGGCCACAGCAGAAGCGUUCACGCCGCAGCCCCUGUCAGAUACUGGUGAACCUGCGAAUUCUGCUGUAUAUCUC [U31C U49A U58C]	0.1
UAACAGGGGGCCACAGCAGAAGCGUUCACGCCGCAGCCCCUGUCAGAUCCUGGUGGAUCAGCGAAUUCUGCUGUAUAUCAC [U31C U49C A56G U60A U80A]	0.16
UAACAGGGGGCCACAGCAGAAGCGUUCACGCCGCAGCCCCUGUCAGAUCCUGGUGUAUCUGCGAAUUCUGCUGUAUAUCUC [U31C U49C A56U]	0.15
UAACAGGGGGCCACAGCAGAAGCGUUCACGCCGCAGCCCCUGUCAGAUCCUGGUGAAUCUGCGAAUUCUGCUGUAUACCUC [U31C U49C U78C]	0.22
UAACAGGGGGCCACAGCAGAAGCGUUCACGCCGCAGCCCCUGUCAGAUUCAGGUGGAUCUGCGAAUUCUGCUGUAUAUCUC [U31C U51A A56G]	0.36
UAACAGGGGGCCACAGCAGAAGCGUUCACGCCGCAGCCCCUGUCAGAUUCAGGUGAAUCUGCGAAUUCUGCUGUAUUUCUC [U31C U51A A77U]	0.83
UAACAGGGGGCCACAGCAGAAGCGUUCACGCCGCAGCCCCUGUCAGAUUCAGGUGAAUCUGCGAAUUCUGCUGUAUACCUC [U31C U51A U78C]	0.87
UAACAGGGGGCCACAGCAGAAGCGUUCACGCCGCAGCCCCUGUCAGAUUCCGGUGGAUCUGCGAAUUCUGCGGUUUAUCUC [U31C U51C A56G U72G A75U]	0.55
UAACAGGGGGCCACAGCAGAAGCGUUCACGCCGCAGCCCCUGUCAGAUUCCGGUGUAUCUGCGUAUUCUGCUGUAUAUCUC [U31C U51C A56U A64U]	0.15
UAACAGGGGGCCACAGCAGAAGCGUUCACGCCGCAGCCCCUGUCAGAUUCCGGUGAAUCUGCGGAUUCUGCUGUAUAACUC [U31C U51C A64G U78A]	0.63
UAACAGGGGGCCACAGCAGAAGCGUUCACGCCGCAGCCCCUGUCAGAUUCCGGUGAAUCUGCGAAUUCUGCUGUGUAUCCC [U31C U51C A75G U80C]	0.44
UAACAGGGGGCCACAGCAGAAGCGUUCACGCCGCAGCCCCUGUCAGAUUCCGGUGAAUCUGCGAAUUCUGCUGUAUUUCUC [U31C U51C A77U]	0.91
UAACAGGGGGCCACAGCAGAAGCGUUCACGCCGCAGCCCCUGUCAGAUUCCUGUGAAUCUGCGAAUUCUGCUGUAUAUCUC [U31C U51C G52U]	1.06
